Among the data in PubChem BioAssay AID180 (DTP/NCI, 2004) are T/C values, retold here.

A number of entries come with more than one value. This list holds those alone. There may be further records. Values given together repeat one measurement in other runs, samples, wells, individuals or studies.

For the test, the system named is BDF1 mice, Adenocarcinoma 755 s.c., tumor weight T/C. Description: NCI In Vivo Anticancer Drug Screen. Data for tumor model Adenocarcinoma 755 (subcutaneous) in B6D2F1 (BDF1) mice. The settings on record: endpoint: mean tumor weight, higher = larger tumour. As to the method:
The antitumor activity of compounds was measured in mice bearing transplantable tumors. Survival or tumor size were measured and the results are expressed as the measurement made in the treated group (T) divided by the measurement made in the vehicle treated control group (C). The tumor model used in this assay is Adenocarcinoma 755 (subcutaneous) in B6D2F1 (BDF1) mice

Setting [1] is: dose: 60.0 mg/kg/injection, schedule: Q01DX011 (ip), vehicle: carboxymethylcellulose (CMC).
[2] abbreviates: dose: 75.0 mg/kg/injection, schedule: Q01DX011 (ip), vehicle: methylcellulose (MC).

For `CC(=O)[C@H]1CC[C@H]2[C@@H]3C[C@H](C)C4=CC(=O)CC[C@]4(C)[C@H]3C(=O)C[C@]12C`, where the note is “dose: 100.0 mg/kg/injection, schedule: Q01DX011 (sc), vehicle: steriod suspending solution”, the T/C is 29 % of control and 55 % of control. Consider `CS(=O)(=O)c1nc(N)nc2nc[nH]c12`, for which, for the setting “dose: 15.0 mg/kg/injection, schedule: Q01DX011 (ip), vehicle: carboxymethylcellulose (CMC)”, the T/C was 32 % of control and 60 % of control. Regarding `ClCCN(CCCl)c1ccc(/C=C\c2ccnc3ccccc23)cc1`, under setting [1], the T/C is 28 % of control and 77 % of control. As for `O=c1[nH]cc(N(CCCl)CCCl)c(=O)[nH]1`, for the setting “dose: 0.84 mg/kg/injection, schedule: Q01DX011 (ip), vehicle: carboxymethylcellulose (CMC)”, the T/C was 32 % of control, 34 % of control, 79 % of control. On to `O=C(OCC1OC(n2cnc3c(=S)nc[nH]c32)C(OC(=O)c2ccc([N+](=O)[O-])cc2)C1OC(=O)c1ccc([N+](=O)[O-])cc1)c1ccc([N+](=O)[O-])cc1` (configuration not stated), for which, where the note is “dose: 100.0 mg/kg/injection, schedule: Q01DX011 (ip), vehicle: other”, the T/C is 15 % of control and 46 % of control. On to `Cn1c(=O)c2[nH]c(N/N=C/c3ccccc3)nc2n(C)c1=O`, for which the T/C under setting [2] was 34 % of control and 109 % of control. For `CC/C(=C(/CC)c1ccc(O)cc1)c1ccc(O)cc1`, the T/C (dose: 6.43 mg/kg/injection, schedule: Q01DX011 (sc), vehicle: steriod suspending solution) was 52 % of control and 95 % of control.

As for `S=c1nc[nH]c2c1ncn2C1CCCO1` (configuration not stated), the T/C (dose: 3.0 mg/kg/injection, schedule: Q01DX011 (ip), vehicle: carboxymethylcellulose (CMC)) was 9 % of control and 44 % of control.

As for `CC(C)OC(=O)C1(N)CCCC1`, the T/C (dose: 15.0 mg/kg/injection, schedule: Q01DX011 (ip), vehicle: other) is 55 % of control and 109 % of control; the T/C (dose: 28.0 mg/kg/injection, schedule: Q01DX011 (ip), vehicle: carboxymethylcellulose (CMC)) is 39 % of control and 73 % of control; the T/C (dose: 30.0 mg/kg/injection, schedule: Q01DX011 (ip), vehicle: other) is 27 % of control and 77 % of control; the T/C (dose: 56.0 mg/kg/injection, schedule: Q01DX011 (ip), vehicle: saline) was 10 % of control and 42 % of control; the T/C (dose: 60.0 mg/kg/injection, schedule: Q01DX011 (ip), vehicle: other) was 7 % of control and 51 % of control. As to `CC1C[C@@H]2[C@H]([C@@H](O)C[C@@]3(C)[C@H]2CC[C@]3(O)C(=O)CF)[C@@]2(C)CCC(=O)C=C12` (some centres not stated), the T/C (dose: 5.0 mg/kg/injection, schedule: Q01DX011 (sc), vehicle: steriod suspending solution) was 42 % of control and 74 % of control. As to `CN(C)[C@@H]1C(=O)C(C(=O)NCc2nc3[nH]cnc(=S)c3[nH]2)=C(O)[C@@]2(O)C(=O)C3=C(O)c4c(O)cccc4[C@@](C)(O)[C@H]3C[C@@H]12`, for the setting “dose: 7.0 mg/kg/injection, schedule: Q01DX011 (ip), vehicle: carboxymethylcellulose (CMC)”, the T/C was 8 % of control, 30 % of control, 47 % of control.

Consider `O=C(O)c1cccc2c3c(cc([N+](=O)[O-])c12)CCCC3`, for which the T/C (dose: 0.75 mg/kg/injection, schedule: Q01DX011 (ip), vehicle: carboxymethylcellulose (CMC)) is 51 % of control and 101 % of control. On to `CCC1CN1CC1CO1` (configuration not stated), for which the T/C by setting is: (dose: 20.0 mg/kg/injection, schedule: Q01DX011 (ip), vehicle: saline) 28 % of control and 81 % of control; (dose: 40.0 mg/kg/injection, schedule: Q01DX011 (ip), vehicle: saline) 14 % of control and 73 % of control. As to `COc1cc2c(c(OC)c1OC)-c1ccc(N)c(=O)cc1[C@@H](NC(C)=O)CC2`, where the note is “dose: 1.0 mg/kg/injection, schedule: Q01DX011 (ip), vehicle: saline”, the T/C was 42 % of control and 75 % of control.

Regarding `CC(=O)OCC(=O)[C@@]1(O)CC[C@H]2[C@@H]3CCC4=CC(=O)CC[C@]4(C)[C@H]3[C@@H](O)C[C@@]21C`, the T/C by setting is: (dose: 15.0 mg/kg/injection, schedule: Q01DX011 (sc), vehicle: steriod suspending solution) 21 % of control, 36 % of control, 51 % of control; (dose: 560.0 mg/kg/injection, schedule: Q01DX001 (sc), vehicle: steriod suspending solution) 24 % of control and 105 % of control. For `CCOC(=O)C1=C(C)NC(C)=C(C(=O)OCC)C1C`, the T/C (dose: 250.0 mg/kg/injection, schedule: Q01DX011 (ip), vehicle: other) is 30 % of control and 62 % of control.

Turning to `CC(=O)[C@@]1(O)CC[C@H]2[C@@H]3C[C@H](C)C4=CC(=O)CC[C@]4(C)[C@H]3[C@@H](O)C[C@@]21C`, the T/C runs as follows: (dose: 28.0 mg/kg/injection, schedule: Q01DX011 (sc), vehicle: steriod suspending solution) 34 % of control, 50 % of control, 69 % of control; (dose: 56.0 mg/kg/injection, schedule: Q01DX011 (sc), vehicle: steriod suspending solution) 20 % of control, 50 % of control, 53 % of control; (dose: 900.0 mg/kg/injection, schedule: Q01DX011 (sc), vehicle: steriod suspending solution) 7 % of control and 97 % of control. As to `CCCCCCCCOP(=O)(N1CC1)N1CC1`, the T/C was 27 % of control and 62 % of control (dose: 0.5 mg/kg/injection, schedule: Q01DX011 (ip), vehicle: saline); 49 % of control and 76 % of control (dose: 3.0 mg/kg/injection, schedule: Q01DX011 (ip), vehicle: saline). Turning to `OCCn1cnc2c(SCc3ccccc3Cl)ncnc21`, the T/C under setting [2] was 7 % of control and 39 % of control.

For the compound `CCN(CC)CCNc1ccc(C)c2sc3ccccc3c(=O)c12`, the T/C (dose: 69.0 mg/kg/injection, schedule: Q01DX011 (ip), vehicle: carboxymethylcellulose (CMC)) was 27 % of control and 75 % of control. With `CN1CC[C@]23c4c5ccc(O)c4O[C@H]2C(=O)CC[C@@]3(O)[C@H]1C5`, the T/C (dose: 9.0 mg/kg/injection, schedule: Q01DX011 (ip), vehicle: methylcellulose (MC)) was 52 % of control, 61 % of control, 82 % of control; the T/C (dose: 18.0 mg/kg/injection, schedule: Q01DX011 (ip), vehicle: methylcellulose (MC)) is 26 % of control, 57 % of control, 77 % of control; the T/C (dose: 36.0 mg/kg/injection, schedule: Q01DX011 (ip), vehicle: methylcellulose (MC)) is 19 % of control and 76 % of control. On to `CCOc1ccc2nc(S(N)(=O)=O)sc2c1`, for which the T/C is, setting by setting: (dose: 25.0 mg/kg/injection, schedule: Q01DX011 (ip), vehicle: carboxymethylcellulose (CMC)) 43 % of control, 55 % of control, 80 % of control; (dose: 50.0 mg/kg/injection, schedule: Q01DX011 (ip), vehicle: carboxymethylcellulose (CMC)) 42 % of control and 82 % of control. Turning to `NC(=O)N(CCCl)N=O`, where the note is “dose: 0.45 mg/kg/injection, schedule: Q01DX011 (ip), vehicle: methylcellulose (MC)”, the T/C was 46 % of control and 104 % of control. As for `COc1cc2c3c(c4cc(OC)c(OC)cc4c2cc1OC)CN1CCC[C@H]1C3`, the T/C (dose: 13.3 mg/kg/injection, schedule: Q01DX006 (ip), vehicle: water) is 33 % of control and 90 % of control. In the case of `O=CNC(Cc1ccc(N(CCCl)CCCl)cc1)C(=O)O` (configuration not stated), the T/C (dose: 20.0 mg/kg/injection, schedule: Q01DX011 (ip), vehicle: carboxymethylcellulose (CMC)) is 14 % of control and 46 % of control.

Take `CC(=O)OCC(=O)[C@@]1(O)CC[C@H]2[C@@H]3C[C@H](C)C4=CC(=O)CC[C@]4(C)[C@H]3[C@@H](O)C[C@@]21C`: the T/C was 41 % of control and 120 % of control (dose: 11.0 mg/kg/injection, schedule: Q01DX011 (sc), vehicle: steriod suspending solution); 30 % of control and 88 % of control (dose: 22.0 mg/kg/injection, schedule: Q01DX011 (sc), vehicle: steriod suspending solution). Take `CCCn1cnc2c(SCc3ccc(Br)cc3)nc(N)nc21`: the T/C (dose: 125.0 mg/kg/injection, schedule: Q01DX011 (ip), vehicle: methylcellulose (MC)) was 10 % of control and 43 % of control. Regarding `CC(=O)OCC1OC(n2cnc3c(N)ncnc32)CC1OC(C)=O` (configuration not stated), the T/C under setting [1] was 80 % of control and 112 % of control. Regarding `CC(=O)OCC(=O)[C@@]1(O)CC[C@H]2[C@@H]3C[C@H](C)C4=CC(=O)C=C[C@]4(C)[C@@]3(F)[C@@H](O)C[C@@]21C`, the T/C is, setting by setting: (dose: 0.25 mg/kg/injection, schedule: Q01DX011 (sc), vehicle: steriod suspending solution) 41 % of control and 73 % of control; (dose: 0.5 mg/kg/injection, schedule: Q01DX011 (sc), vehicle: steriod suspending solution) 46 % of control, 72 % of control, 87 % of control; (dose: 1.0 mg/kg/injection, schedule: Q01DX011 (sc), vehicle: steriod suspending solution) 59 % of control and 85 % of control; (dose: 2.0 mg/kg/injection, schedule: Q01DX011 (sc), vehicle: steriod suspending solution) 51 % of control and 81 % of control.

As for `O=C1[O][Sb]23[O]C(=O)C([O]2)C(O)C(O)C2[O][Sb]4([O]C(=O)C([O]4)C(O)C(O)C1[O]3)[O]C2=O` (configuration not stated), the T/C (dose: 40.0 mg/kg/injection, schedule: Q01DX011 (ip), vehicle: methylcellulose (MC)) is 45 % of control and 91 % of control.

On to `CC(C)Cn1cnc2c(SCc3ccccc3F)nc(N)nc21`, for which the T/C under setting [2] is 1 % of control and 96 % of control.
